Measurements taken from PubChem BioAssay AID1347165 (National Center for Advancing Translational Sciences (NCATS), 2019).
Several values for one entry are separate records, joined by “and”; a condition that tells them apart may be missing. Equal entries are not always repeated. The campaign covered roughly 220,000 compounds. About 5,700 (2.6%) were called active. The shares of active, inactive and inconclusive entries below differ from those in the screen. The call rests on the fitted dose curve; in most records, active means well fitted inhibition curve with a large enough effect; inconclusive means small, poorly fitted or top-dose-only effect; inactive means no such curve, though single readings can be large or run the other way. Where the call is inconclusive, the potency comes from a doubtful curve fit.

target: Lysine-specific demethylase 5B (Homo sapiens) (UniProt Q9UGL1); assay: Primary screen for KDM5B Histone Demethylases FDH-coupled qHTS; details: FDH-coupled NADH fluorescence (FDH is formaldehyde dehydrogenase); activity change, negative = inhibition: at 57.7 µM (top of the series) unless noted; further: nearly all actives have a fitted effect of over 70% in size; on activity change, negative = inhibition: 0% is about no effect
Method in brief: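 Compound dilutions met 200 nM (final) KDM5BΔAP for 10 min at room temperature before substrate addition. The substrate mix held 12.5 µM H3K4me3 with cofactors 25 µM α-ketoglutarate and 50 µM Fe²⁺. NADH signal gain over 30 min defined activity.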
Potency means the concentration at half of the fitted maximal effect; tags describe the fitted curve by direction and shape.

UniProt Q9UGL1, sequence (Q9UGL1 whole entry, looked up): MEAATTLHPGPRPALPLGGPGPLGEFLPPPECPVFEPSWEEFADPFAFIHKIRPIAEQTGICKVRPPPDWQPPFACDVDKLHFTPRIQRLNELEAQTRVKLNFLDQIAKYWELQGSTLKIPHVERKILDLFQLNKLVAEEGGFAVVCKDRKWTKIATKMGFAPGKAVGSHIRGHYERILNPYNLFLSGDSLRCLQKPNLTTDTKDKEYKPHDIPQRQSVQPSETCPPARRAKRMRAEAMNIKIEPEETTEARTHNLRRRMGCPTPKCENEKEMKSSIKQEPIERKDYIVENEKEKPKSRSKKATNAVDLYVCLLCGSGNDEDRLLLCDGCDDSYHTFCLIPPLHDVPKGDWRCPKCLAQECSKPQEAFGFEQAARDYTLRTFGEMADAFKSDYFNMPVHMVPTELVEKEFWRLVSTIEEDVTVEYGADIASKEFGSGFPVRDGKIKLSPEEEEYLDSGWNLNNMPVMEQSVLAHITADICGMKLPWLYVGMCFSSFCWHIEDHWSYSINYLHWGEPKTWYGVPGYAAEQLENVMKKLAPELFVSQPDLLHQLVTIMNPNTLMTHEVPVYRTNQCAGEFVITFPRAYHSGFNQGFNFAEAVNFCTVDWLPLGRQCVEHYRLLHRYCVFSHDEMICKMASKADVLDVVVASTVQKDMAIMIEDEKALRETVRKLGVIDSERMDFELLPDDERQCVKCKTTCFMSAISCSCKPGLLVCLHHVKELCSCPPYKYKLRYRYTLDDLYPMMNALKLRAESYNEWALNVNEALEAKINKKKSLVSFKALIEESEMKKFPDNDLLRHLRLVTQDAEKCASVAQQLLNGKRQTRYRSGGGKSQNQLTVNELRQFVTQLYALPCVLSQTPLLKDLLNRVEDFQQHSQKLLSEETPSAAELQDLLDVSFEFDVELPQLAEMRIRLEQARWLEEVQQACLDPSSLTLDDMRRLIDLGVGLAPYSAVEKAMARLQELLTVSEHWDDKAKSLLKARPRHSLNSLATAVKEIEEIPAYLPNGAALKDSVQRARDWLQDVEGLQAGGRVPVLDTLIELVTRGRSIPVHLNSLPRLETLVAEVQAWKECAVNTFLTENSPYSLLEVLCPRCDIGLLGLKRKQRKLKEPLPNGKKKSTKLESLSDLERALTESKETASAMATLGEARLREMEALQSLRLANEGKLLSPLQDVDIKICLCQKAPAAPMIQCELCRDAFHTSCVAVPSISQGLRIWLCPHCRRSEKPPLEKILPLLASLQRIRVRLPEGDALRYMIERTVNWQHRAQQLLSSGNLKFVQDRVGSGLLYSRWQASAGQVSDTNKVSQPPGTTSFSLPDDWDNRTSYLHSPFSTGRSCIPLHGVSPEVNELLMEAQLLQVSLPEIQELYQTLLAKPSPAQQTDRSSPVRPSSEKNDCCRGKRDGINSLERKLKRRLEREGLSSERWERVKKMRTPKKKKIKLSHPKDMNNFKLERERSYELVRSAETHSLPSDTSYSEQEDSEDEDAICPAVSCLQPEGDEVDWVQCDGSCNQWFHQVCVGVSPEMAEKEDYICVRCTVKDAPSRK

SMILES | Potency | activity change, negative = inhibition
CC1CCCCC1NC(=O)CSC1=Nc2ccccc2C2CC=NN12 (configuration not stated) | inconclusive: 12.6 µM [inhibitor, partial curve, poor fit] | 
CCCOP(=O)(c1ccc(N(C)C)cc1)C(Nc1ccccc1)c1ccc(C)cc1 (configuration not stated) | inconclusive: 31.6 µM [inhibitor, single point] | 
CC(=O)NCc1ccc(-c2csc(Nc3ccc(F)cc3)n2)s1 | inactive | 
O=C(Nc1cccc(C(F)(F)F)c1)O[C@@H]1CO[C@H]2[C@@H]1OC[C@@H]2Nc1nccc(-c2ccc3c(c2)OCO3)n1 | active: 31.6 µM | 
O=C(O)CNS(=O)(=O)c1cccc(C(=O)/C=C/c2ccc(Cl)cc2)c1 | inconclusive: 39.8 µM [inhibitor, single point] | 
O=C(CCc1ccccc1)N1CCCC(Cc2nc(C3CCOCC3)no2)C1 (configuration not stated) | inconclusive: 31.6 µM [inhibitor, single point] | 
Cc1ccc2c(c1)c(=O)c1ccccc1n2CCCC(=O)Nc1ccc(C)c(C)c1 | inconclusive: 17.8 µM [inhibitor, partial curve, poor fit] | 
Cc1ccc2c(c1)-c1c(cnc3cc(-c4ccc(Cl)cc4)nn13)CO2 | inconclusive: 3.16 µM [inhibitor, full curve, poor fit] | 
CN1CCC(N2CCC[C@@H](O)[C@H](NC(=O)c3ccc(OCc4ccccc4)cc3)C2)CC1 | inconclusive: 15.8 µM [inhibitor, partial curve] | 
CC(=O)CC1(C#N)C(N)=C(C=O)CC1(C#N)C#N (configuration not stated) | inconclusive: 15.8 µM [inhibitor, partial curve, poor fit] | 
CC(CNC(=O)c1cc2cc(S(=O)(=O)N3CCCCC3)ccc2n1C)c1ccccc1 (configuration not stated) | inconclusive: 14.1 µM [inhibitor, partial curve, poor fit] | 
COc1ccc(-c2cc(C(=O)N3CCN(Cc4ccccc4)CC3)c3ccccc3n2)cc1 | inactive | 
CCOc1cc(-c2nc(C3CC(=O)N(c4ccc(F)c(Cl)c4)C3)no2)cc(OCC)c1OCC (configuration not stated) | inconclusive: 35.5 µM [inhibitor, partial curve, poor fit] | 
CCOc1cc(C2N=C(N)Nc3nc4cc5c(cc4n32)OCCCO5)cc(Cl)c1O (configuration not stated) | inactive | 
Cc1c(C)c(C)c(C(=O)O)c(C)c1C | inactive | 
O=C(CCc1cc2n(n1)CCN(C(=O)C1Cc3ccccc3O1)C2)NC1CC1 (configuration not stated) | inactive | 
Cc1cccc(C(=O)Nc2cc(-c3ccccc3F)nn2-c2ccccc2)c1 | inconclusive: 39.8 µM [inhibitor, single point] | 
O=C1CCN(C2CCCC2)CCOCCN1 | inconclusive: 20 µM [inhibitor, partial curve, poor fit] | 
Cc1ccc(CN2CCc3oc(C)c(C(=O)NCCCN4CCN(C)CC4)c3C2)cc1 | inconclusive: 17.8 µM [inhibitor, partial curve] | 
O=C(c1ccc(Cl)cc1)N1CCC(N2CCOC2=O)CC1 | inconclusive: 112 µM [inhibitor, single point] | 
O=C(NCc1cnn(-c2ccccc2)c1)C1CCN(S(=O)(=O)c2ccc(F)cc2)CC1 | inactive | 
O=C1NCCOCCCN(C(=O)NCc2ccccc2)[C@H]2CCC[C@@H]12 | inactive | 
Cc1ccc(C)c(C(=O)Cn2nc(C(=O)O)c3ccccc3c2=O)c1 | inactive | 

SMILES | Potency | activity change, negative = inhibition
COc1ccc(-c2cc(C(=O)N3CCC(c4nc(CCOCC5CC5)no4)C3)[nH]n2)cc1 (configuration not stated) | inconclusive: 17.8 µM [inhibitor, single point] | 
CCNC(=O)[C@@H]1CCCN1[C@@H](C(=O)NC)c1ccccc1F | inactive | 
CS(=O)(=O)N1CCC(C2CCN(Cc3ccc[nH]3)C2)CC1 (configuration not stated) | inconclusive: 15.8 µM [inhibitor, partial curve, poor fit] | 
O=C(Cn1c(=O)n(Cc2ccc(F)cc2)c(=O)c2sc3ccccc3c21)Nc1ccc(F)cc1F | inconclusive: 15.8 µM [inhibitor, partial curve, poor fit] | 
COc1cccc(CNC(=O)Cn2cccc2C(=O)c2ccccc2)c1 | inactive | 
COc1ccc(C(=O)N2CCN(c3nc4c(OC)cccc4s3)CC2)cc1OC | inactive | 
O=C(c1ccc(F)cc1)N1CCc2nc(OCC3CC3)ccc2C1 | inactive | 
COc1ccc(CCNC(=O)Cc2ccc(NC(=O)N3CCSc4ncccc43)cc2)cc1OC | inconclusive: 28.2 µM [inhibitor, partial curve, poor fit] and inconclusive: 22.4 µM [inhibitor, partial curve, poor fit] | 
Cc1cn2nc(C(=O)NCC(C)c3ccccc3)cc2c(N2CCSCC2)n1 (configuration not stated) | inconclusive: 35.5 µM [inhibitor, partial curve, poor fit] | 
CC(=O)N1CCC(CC(=O)N[C@@H]2CN(C)C[C@H]2CN(C)C)CC1 | inconclusive: 28.2 µM [inhibitor, partial curve, poor fit] | 
O=C(C1=C(O)C(=O)N(CCOCCO)C1c1ccccn1)c1cccs1 (configuration not stated) | inconclusive: 20 µM [inhibitor, single point] | 
Cc1cc(C(=O)CN(C)CC(=O)Nc2ccccc2Br)c(C)n1CCc1cccs1 | inactive | 
O=C(NCC1CC1)c1nc2c(o1)CCN(Cc1cccc(F)c1)CC2 | inactive | 
COc1cccc(NC(=O)Cc2c(C)c3c(O)cc(C)cc3oc2=O)c1 | inconclusive: 22.4 µM [inhibitor, partial curve, poor fit] | 
COc1cc2c(cc1OC)-c1cc(Nc3ccccc3)nc(=O)n1CC2 | inconclusive: 28.2 µM [inhibitor, partial curve, poor fit] | 
O=C(CN1CCN(c2ccc(O)cc2)CC1)Nc1cccc(S(=O)(=O)N2CCCC2)c1 | inconclusive: 3.98 µM [inhibitor, partial curve, poor fit] | 
CCN1CCc2c(sc(-n3cccc3)c2C(CCC(C)C)NC(=O)NCCC(=O)OC)C1 (configuration not stated) | inconclusive: 14.1 µM [inhibitor, partial curve, poor fit] | 
Cn1nccc1C(=O)N1CCCC1c1nc(C2CCOCC2)no1 (configuration not stated) | inconclusive: 7.08 µM [inhibitor, partial curve] | 
COc1ccccc1NC(=O)c1cc(=O)c2ccc(C)cc2o1 | inactive | 
CCc1cccc(C)c1NC(=O)C(NS(=O)(=O)c1ccc2c(c1)CCC(=O)N2)c1ccccc1 (configuration not stated) |  | inconclusive: -30.4% [inhibitor]
CCCn1c2ccccc2c2cnn(CC(=O)NCCCOC(C)C)c(=O)c21 | inconclusive: 25.1 µM [inhibitor, partial curve, poor fit] | 
CC(C)c1ccc(-c2nn(-c3ccccc3)cc2/C=N/O)cc1 | inactive | 
CCc1ccc(NC(=O)c2ccccc2NCC(=O)N2CC(=O)Nc3ccccc32)cc1 | inconclusive: 39.8 µM [inhibitor, single point] | 

SMILES | Potency | activity change, negative = inhibition
CCC(NC(=O)c1ccc2nc(-c3ccc(F)cc3)cn2c1)c1cccnc1 (configuration not stated) | active: 28.2 µM | 
Cc1ccccc1OCC(=O)Nc1ccc2oc(-c3ccccc3C)nc2c1 | inconclusive: 39.8 µM [inhibitor, single point] | 
O=S(=O)(c1ccccc1)c1nnn2c1nc(NC1CCCC1)c1ccccc12 | inconclusive: 44.7 µM [inhibitor, partial curve, poor fit] | 
Cn1c(O)c(C2=Nc3ccccc3SC(c3ccc(O)cc3)C2)c(=O)[nH]c1=O (configuration not stated) | inactive | 
Cc1ccsc1-c1nc(-c2nnn3c2COC(c2ccc(Cl)cc2)C3)no1 (configuration not stated) | inactive | 
CC(NC(=O)c1ccc2nccn2c1)c1ccccc1-n1cccn1 (configuration not stated) | inconclusive: 22.4 µM [inhibitor, single point] | 
COc1cccc(NC2=CC(c3ccc(C(C)C)cc3)N(c3cccc(OC)c3)C2=O)c1 (configuration not stated) | inconclusive: 25.1 µM [inhibitor, partial curve, poor fit] | 
Cc1ccc2c(COC(=O)c3cc(S(=O)(=O)N(C)C)ccc3NCCO)cc(=O)oc2c1 | inconclusive: 31.6 µM [inhibitor, single point] | 
CC(=O)NC1(C)CCN(Cc2cccc(-c3ccc4ccccc4c3)c2)C1 (configuration not stated) | inconclusive: 39.8 µM [inhibitor, partial curve, poor fit] | 
O=C(c1ccccn1)N1CCn2c(nn(-c3ccc(Cl)cc3)c2=O)C1 | inactive | 
Fc1ccc(CSc2ccc3ccccc3n2)cc1 | inactive | 
CCCc1noc(-c2cn(C3CCN(C(=O)c4cccc(N(C)C)c4)CC3)nn2)n1 | inactive | 
Cc1ccc(CNC(=O)C2CCN(S(=O)(=O)/C=C/c3ccccc3)CC2)cc1 | inactive | 
N#Cc1ccccc1S(=O)(=O)N1CCN(C(=O)CCc2ncc(-c3c(F)cccc3F)o2)CC1 | inactive | 
Cn1ccc2c(C(=O)N3CCCC(c4ccc(C(=O)O)cc4)C3)cccc21 (configuration not stated) | inconclusive: 15.8 µM [inhibitor, partial curve] | 
Cc1cc(N2CCOCC2)n2nc(C)c(-c3ccc(Cl)cc3)c2n1 | inconclusive: 25.1 µM [inhibitor, partial curve, poor fit] | 
CCN(CC)CCNC(=O)c1ccc2c(c1)N(S(C)(=O)=O)CC2 | active: 28.2 µM | 
O=C(Cn1cc(SCc2ccc(Cl)cc2)c2ccccc21)N1CCCC1 | inconclusive: 2.51 µM [inhibitor, partial curve, poor fit] | 
CC(C)CCn1nc(C(=O)NCc2ccc(F)cc2)c2ccccc2c1=O | inactive | 
CCN1c2cc(C(=O)Nc3ccccc3)ccc2C(=O)N2CCCCCC21 (configuration not stated) | inconclusive: 25.1 µM [inhibitor, partial curve, poor fit] | 
COc1ccc(-c2nnc(SCC(=O)Nc3ccc(C)c(Cl)c3)nc2-c2ccc(OC)c(OC)c2)cc1OC | inconclusive: 39.8 µM [inhibitor, single point] | 
